From paper PMC9911399, “Two distinct binding modes provide the RNA-binding protein RbFox with extraordinary sequence specificity”
Substitutions are numbered along the chain they refer to; changes in the protein carry UniProt numbers. Some of the results follow.

T1: RBFOX1 RRM RbFoxmut (Fox-RRM*) (Homo sapiens, UniProt Q9NWB1 109-208, R118D;E147R;N151S;E152T)
T1 sequence: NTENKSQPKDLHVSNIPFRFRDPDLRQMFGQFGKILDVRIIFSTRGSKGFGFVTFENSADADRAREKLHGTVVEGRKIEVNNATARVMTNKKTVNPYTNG

B1: CGAGUAU (DNA:RNA)
RNA: GGGAGACCGGAAUUCAGAUUGUCCCGAGUAUUUAAAUCCCGUCGUAGCCACCA
DNA 1: CAATCTGAATTCCGGTCTCCC
DNA 2: TGGTGGCTACGACGGGATT
B2: UACAUGA (DNA:RNA)
RNA: B1 RNA with C25U, G26A, A27C, G28A, A30G, U31A
DNA 1: CAATCTGAATTCCGGTCTCCC
DNA 2: TGGTGGCTACGACGGGATT
B3: UUUAAGA (DNA:RNA)
RNA: GGGAGACCGGAAUUCAGAUUGUCCUUUAAGAUUAAAUCCCGUCGUAGCCACCA
DNA 1: CAATCTGAATTCCGGTCTCCC
DNA 2: TGGTGGCTACGACGGGATT
B4: GGUUCAA (DNA:RNA)
RNA: B1 RNA with C25G, A27U, G28U, U29C, U31A
DNA 1: CAATCTGAATTCCGGTCTCCC
DNA 2: TGGTGGCTACGACGGGATT
B5: UAAAGGU (DNA:RNA)
RNA: B3 RNA with U26A, U27A, A29G, A31U
DNA 1: CAATCTGAATTCCGGTCTCCC
DNA 2: TGGTGGCTACGACGGGATT
B6: GCUUUUA (DNA:RNA)
RNA: B3 RNA with U25G, U26C, A28U, A29U, G30U
DNA 1: CAATCTGAATTCCGGTCTCCC
DNA 2: TGGTGGCTACGACGGGATT
B7: UGAGCAG (DNA:RNA)
RNA: B1 RNA with C25U, U29C, U31G
DNA 1: CAATCTGAATTCCGGTCTCCC
DNA 2: TGGTGGCTACGACGGGATT
B8: AACAGAG (DNA:RNA)
RNA: B1 RNA with C25A, G26A, A27C, G28A, U29G, U31G
DNA 1: CAATCTGAATTCCGGTCTCCC
DNA 2: TGGTGGCTACGACGGGATT
B9: GUACCCA (DNA:RNA)
RNA: B3 RNA with U25G, U27A, A28C, A29C, G30C
DNA 1: CAATCTGAATTCCGGTCTCCC
DNA 2: TGGTGGCTACGACGGGATT
B10: CCAUAGU (DNA:RNA)
RNA: B1 RNA with G26C, G28U, U29A, A30G
DNA 1: CAATCTGAATTCCGGTCTCCC
DNA 2: TGGTGGCTACGACGGGATT
B11: UCGUGUA (DNA:RNA)
RNA: B3 RNA with U26C, U27G, A28U, A29G, G30U
DNA 1: CAATCTGAATTCCGGTCTCCC
DNA 2: TGGTGGCTACGACGGGATT
B12: CAAAUGU (DNA:RNA)
RNA: B1 RNA with G26A, G28A, A30G
DNA 1: CAATCTGAATTCCGGTCTCCC
DNA 2: TGGTGGCTACGACGGGATT
B13: CUUUACA (DNA:RNA)
RNA: B3 RNA with U25C, A28U, G30C
DNA 1: CAATCTGAATTCCGGTCTCCC
DNA 2: TGGTGGCTACGACGGGATT
B14: UAGUACC (DNA:RNA)
RNA: B3 RNA with U26A, U27G, A28U, G30C, A31C
DNA 1: CAATCTGAATTCCGGTCTCCC
DNA 2: TGGTGGCTACGACGGGATT
B15: AAGUUGC (DNA:RNA)
RNA: B1 RNA with C25A, G26A, A27G, G28U, A30G, U31C
DNA 1: CAATCTGAATTCCGGTCTCCC
DNA 2: TGGTGGCTACGACGGGATT
B16: UCAAAGU (DNA:RNA)
RNA: B3 RNA with U26C, U27A, A31U
DNA 1: CAATCTGAATTCCGGTCTCCC
DNA 2: TGGTGGCTACGACGGGATT
B17: AGGAGUG (DNA:RNA)
RNA: B1 RNA with C25A, A27G, G28A, U29G, A30U, U31G
DNA 1: CAATCTGAATTCCGGTCTCCC
DNA 2: TGGTGGCTACGACGGGATT
B18: GAAUUCA (DNA:RNA)
RNA: B1 RNA with C25G, G26A, G28U, A30C, U31A
DNA 1: CAATCTGAATTCCGGTCTCCC
DNA 2: TGGTGGCTACGACGGGATT
B19: UGUGUCC (DNA:RNA)
RNA: B1 RNA with C25U, A27U, A30C, U31C
DNA 1: CAATCTGAATTCCGGTCTCCC
DNA 2: TGGTGGCTACGACGGGATT
B20: AUACUGG (DNA:RNA)
RNA: B1 RNA with C25A, G26U, G28C, A30G, U31G
DNA 1: CAATCTGAATTCCGGTCTCCC
DNA 2: TGGTGGCTACGACGGGATT

What follows are binders tested against T1, RBFOX1 RRM RbFoxmut (Fox-RRM*) (assay: EMSA; HiTS-Eq, 1 nM pool, 10 min; buffer printed only for the single-RNA assays: 10 mM Tris pH 7.5, 150 mM NaCl, 3.4 mM EDTA, 0.001% NP-40, 30 C). Conditions: tags: His6 N-terminal (pET28a); label: 5' 32P.
Summary of the method: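 Purified RbFox RRM (wild type or mutant) was equilibrated for 10 min in 50 µL with 1 nM of a 5′-radiolabelled pool of RNA with 7 randomized nucleotides, its flanks annealed to DNA oligonucleotides, across increasing protein concentrations. Free RNA was separated by 8% native PAGE, excised, reverse-transcribed, PCR-barcoded and sequenced on an Illumina HiSeq 2500. Relative association constants came from read-count changes of each variant against the control reaction, normalised to the cognate motif.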

Binder	binding signal
B1	0.143 KA relative to UGCAUGU
B2	0.0666 KA relative to UGCAUGU
B3	0.0732 KA relative to UGCAUGU
B4	0.0825 KA relative to UGCAUGU
B5	0.0926 KA relative to UGCAUGU
B6	0.0923 KA relative to UGCAUGU
B7	0.098 KA relative to UGCAUGU
B8	0.0721 KA relative to UGCAUGU
B9	0.0828 KA relative to UGCAUGU
B10	0.116 KA relative to UGCAUGU
B11	0.259 KA relative to UGCAUGU
B12	0.127 KA relative to UGCAUGU
B13	0.0935 KA relative to UGCAUGU
B14	0.0914 KA relative to UGCAUGU
B15	0.123 KA relative to UGCAUGU
B16	0.112 KA relative to UGCAUGU
B17	0.281 KA relative to UGCAUGU
B18	0.0794 KA relative to UGCAUGU
B19	0.148 KA relative to UGCAUGU
B20	0.0862 KA relative to UGCAUGU
